Assay results as given in the supplement of paper PMC12009370.
This is one part of the list. Repeats are few or missing, and single values can be far off.

Test system: IMR-32
Assay: drug sensitivity score (DSS), single drug with vehicle (DSS (score)); neuroblastoma lines; SL-176 and GSK2830371 are WIP1 inhibitors; higher = more cytotoxic; extreme values may be limits of the assay
Details: 72 h; co-treatment: vehicle (DMSO)
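Also: 384-well screen with five concentrations per compound and a luminescence read-out, DSS computed from the fitted dose-response curve combining IC50 with minimum and maximum inhibition.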

Which drug sensitivity score does the source give for S=c1[nH]cnc2nc[nH]c12 [Mercaptopurine] here?
Its drug sensitivity score is 3.8.

With CC[C@H](C)C(=O)O[C@H]1C[C@H](O)C=C2C=C[C@H](C)[C@H](CC[C@@H](O)C[C@@H](O)CC(=O)O)[C@H]21 [Pravastatin] as the compound, how does the drug sensitivity score read?
The drug sensitivity score was 0.

For NC(=S)N/N=C/c1ncccc1N [Triapine], which drug sensitivity score is on record?
Its drug sensitivity score is 11.3.

With CC[C@H](Nc1ncnc2[nH]cnc12)c1nc2cccc(F)c2c(=O)n1-c1ccccc1 [Idelalisib] as the compound, how does the drug sensitivity score read?
The drug sensitivity score was 0.

How did the drug sensitivity score turn out when CC1(C)CNc2cc(NC(=O)c3cccnc3NCc3ccncc3)ccc21 [Motesanib] was run?
The drug sensitivity score was 0.

With Cc1cnc(-c2ccccc2C(C)C)nc1NCc1ccc(-n2ccnn2)cc1 as the compound, how does the drug sensitivity score read?
The drug sensitivity score was 0.

How did the drug sensitivity score turn out when Cc1ccc(-n2nc(C(C)(C)C)cc2NC(=O)Nc2ccc(OCCN3CCOCC3)c3ccccc23)cc1 [Doramapimod] was run?
Its drug sensitivity score is 8.4.

How did the drug sensitivity score turn out when COc1cc2nccc(Oc3ccc(NC(=O)Nc4cc(C)on4)c(Cl)c3)c2cc1OC [Tivozanib] was run?
The drug sensitivity score was 5.

How did the drug sensitivity score turn out when O=c1sn(-c2cccc3ccccc23)c(=O)n1Cc1ccccc1 [Tideglusib] was run?
Its drug sensitivity score is 0.

For CC(C)(O)CC(=O)NCCn1ccc2ncnc(Nc3ccc(Oc4cccc(C(F)(F)F)c4)c(Cl)c3)c21, which drug sensitivity score is on record?
The drug sensitivity score was 0.2.

Which drug sensitivity score does the source give for Cc1c(-c2c(-c3ccc(F)o3)sc3ncnc(O[C@H](Cc4ccccc4OCc4ccnn4CC(F)(F)F)C(=O)O)c23)ccc(OCCN2CCN(C)CC2)c1Cl here?
Its drug sensitivity score is 3.6.

For Cn1cc(-c2ccc(F)c(C(F)(F)F)c2)nc1C1CCN(c2ncnc3[nH]ncc23)CC1, which drug sensitivity score is on record?
Its drug sensitivity score is 3.5.

Which drug sensitivity score does the source give for Nc1nc(NC2CC2)cc(-c2cccc(Cl)c2Cl)n1 here?
The drug sensitivity score was 13.7.

CNC(=O)c1cc(COc2nnc(Nc3ccc(Cl)cc3)c3ccoc23)ccn1 [Telatinib] was tested. Which drug sensitivity score did it give?
The drug sensitivity score was 3.1.

How did the drug sensitivity score turn out when Nc1ncnc2c1c(COc1cccc(Cl)c1)nn2C1CCOCC1 was run?
The drug sensitivity score was 0.

For CCOc1ccn(-c2ccc(F)cc2)c(=O)c1C(=O)Nc1ccc(Oc2ccnc(N)c2Cl)c(F)c1, which drug sensitivity score is on record?
The drug sensitivity score was 0.

NC(=O)c1cccc(-c2cccc(OC(=O)NC3CCCCC3)c2)c1 was tested. Which drug sensitivity score did it give?
Its drug sensitivity score is 0.

Which drug sensitivity score does the source give for CN(C(=O)c1ccc(F)cc1C(F)(F)F)C1CCN(c2nnc(-c3ccnn3C)c3ccccc23)CC1 [Taladegib] here?
The drug sensitivity score was 0.

With C[C@]1(c2nc3c(C(N)=O)cccc3[nH]2)CCCN1 [Veliparib] as the compound, how does the drug sensitivity score read?
Its drug sensitivity score is 8.7.

Which drug sensitivity score does the source give for Nc1ncn([C@@H]2O[C@H](CO)[C@@H](O)[C@H]2O)c(=O)n1 [Azacitidine] here?
The drug sensitivity score was 17.7.

For O=C(O)c1ccc(CN2CCC(CN[C@@H]3C[C@H]3c3ccccc3)CC2)cc1, which drug sensitivity score is on record?
The drug sensitivity score was 0.

How did the drug sensitivity score turn out when CN(C)Cc1c(C(=O)NCCOc2ccc(C(=O)NO)cc2)oc2ccccc12 [Abexinostat] was run?
The drug sensitivity score was 22.6.

For CCCCNc1ncc(C(=O)NCc2ccc(-n3ccnc3)cc2)c(NC2CCC(O)CC2)n1 (stereo not drawn), which drug sensitivity score is on record?
The drug sensitivity score was 0.

With CN(C)C(=O)c1cc2cnc(Nc3ccc(N4CCNCC4)cn3)nc2n1C1CCCC1 [Ribociclib] as the compound, how does the drug sensitivity score read?
The drug sensitivity score was 4.8.

With Cc1ccc(NS(=O)(=O)c2cccc(C#N)c2)c2[nH]cc(C#N)c12 as the compound, how does the drug sensitivity score read?
Its drug sensitivity score is 25.5.

How did the drug sensitivity score turn out when COc1cccc2c1C(=O)c1c(O)c3c(c(O)c1C2=O)C[C@@](O)(/C(CO)=N/NC(=O)CCCCCN1C(=O)C=CC1=O)C[C@@H]3O[C@H]1C[C@H](N)[C@H](O)[C@H](C)O1 [Aldoxorubicin] was run?
The drug sensitivity score was 22.1.

How did the drug sensitivity score turn out when NC1(c2ccc(-c3nc4ccn5c(=O)[nH]nc5c4cc3-c3ccccc3)cc2)CCC1 was run?
Its drug sensitivity score is 2.7.

For O=C(/C=C/c1cccnc1)NCCCCC1CCN(C(=O)c2ccccc2)CC1 [Daporinad], which drug sensitivity score is on record?
The drug sensitivity score was 43.6.

With CCN(CC)CCNC(=O)c1c(C)[nH]c(/C=C2\C(=O)Nc3ccc(F)cc32)c1C [Sunitinib] as the compound, how does the drug sensitivity score read?
The drug sensitivity score was 1.8.

CNCc1ccc(-c2[nH]c3cc(F)cc4c3c2CCNC4=O)cc1 [Rucaparib] was tested. Which drug sensitivity score did it give?
Its drug sensitivity score is 10.4.

Which drug sensitivity score does the source give for Cc1cc(F)c(C(=O)Nc2cccc(-c3nncn3C(C)C)n2)cc1-n1cnc(C2CC2)c1 [Selonsertib] here?
Its drug sensitivity score is 0.

For C[C@@H]1CN(Cc2ccc(F)cc2)[C@@H](C)CN1C(=O)c1cc2c(C(=O)C(=O)N(C)C)cn(C)c2cc1Cl [Talmapimod], which drug sensitivity score is on record?
Its drug sensitivity score is 1.6.

How did the drug sensitivity score turn out when CC(=O)O[C@H]1C(=O)[C@@]2(C)[C@H]([C@H](OC(=O)c3ccccc3)[C@]3(O)C[C@H](OC(=O)[C@H](O)[C@@H](NC(=O)c4ccccc4)c4ccccc4)C(C)=C1C3(C)C)[C@]1(OC(C)=O)CO[C@@H]1C[C@@H]2O [Paclitaxel] was run?
Its drug sensitivity score is 42.

For CN1CC[C@H](c2c(O)cc(O)c3c(=O)cc(-c4ccccc4Cl)oc23)[C@H](O)C1 [Alvocidib], which drug sensitivity score is on record?
Its drug sensitivity score is 18.3.

For COc1cccc2c1C(=O)c1c(O)c3c(c(O)c1C2=O)C[C@@](O)(C(=O)CO)C[C@@H]3O[C@H]1C[C@H](N)[C@@H](O)[C@H](C)O1 [Epirubicin], which drug sensitivity score is on record?
Its drug sensitivity score is 24.3.

With Cc1cc(-c2nc(-c3ccc(OC(F)(F)F)cc3)no2)nn1Cc1ccnc(N2CCN(C3CC3)CC2)c1 as the compound, how does the drug sensitivity score read?
Its drug sensitivity score is 0.

With CCN(CC)CCNC(=O)c1c(C)[nH]c(/C=C2\C(=O)Nc3ccc(-c4csc(-c5ccccc5)n4)cc32)c1C [Amcasertib] as the compound, how does the drug sensitivity score read?
The drug sensitivity score was 9.3.

With COc1cc(Nc2ncc(F)c(Nc3ccc4c(n3)N(COP(=O)(O)O)C(=O)C(C)(C)O4)n2)cc(OC)c1OC [Fostamatinib] as the compound, how does the drug sensitivity score read?
Its drug sensitivity score is 0.3.
